# According to PubChem BioAssay AID588591 (National Center for Advancing Translational Sciences (NCATS), 2011):
# Values joined by “and” are separate entries in the source; they are usually repeats but may differ in a detail not shown here. Identical values can stand only once. Out of some 390,000 compounds screened, about 4,700 (1.2%) were called active. Inconclusive results, whose numbers are uncertain, are shown with a selection of clear calls. The call rests on the fitted dose curve; in most records, active means well fitted inhibition curve with a large enough effect; inconclusive means small, poorly fitted or top-dose-only effect, or another doubt; inactive means no such curve, though single readings can be large or run the other way. Potencies beside an inconclusive call are fits to weak or partial responses and may not hold up.
# Biological target: DNA polymerase eta (Homo sapiens) (UniProt Q9Y253)
# UniProt Q9Y253, sequence (Q9Y253 whole entry, looked up): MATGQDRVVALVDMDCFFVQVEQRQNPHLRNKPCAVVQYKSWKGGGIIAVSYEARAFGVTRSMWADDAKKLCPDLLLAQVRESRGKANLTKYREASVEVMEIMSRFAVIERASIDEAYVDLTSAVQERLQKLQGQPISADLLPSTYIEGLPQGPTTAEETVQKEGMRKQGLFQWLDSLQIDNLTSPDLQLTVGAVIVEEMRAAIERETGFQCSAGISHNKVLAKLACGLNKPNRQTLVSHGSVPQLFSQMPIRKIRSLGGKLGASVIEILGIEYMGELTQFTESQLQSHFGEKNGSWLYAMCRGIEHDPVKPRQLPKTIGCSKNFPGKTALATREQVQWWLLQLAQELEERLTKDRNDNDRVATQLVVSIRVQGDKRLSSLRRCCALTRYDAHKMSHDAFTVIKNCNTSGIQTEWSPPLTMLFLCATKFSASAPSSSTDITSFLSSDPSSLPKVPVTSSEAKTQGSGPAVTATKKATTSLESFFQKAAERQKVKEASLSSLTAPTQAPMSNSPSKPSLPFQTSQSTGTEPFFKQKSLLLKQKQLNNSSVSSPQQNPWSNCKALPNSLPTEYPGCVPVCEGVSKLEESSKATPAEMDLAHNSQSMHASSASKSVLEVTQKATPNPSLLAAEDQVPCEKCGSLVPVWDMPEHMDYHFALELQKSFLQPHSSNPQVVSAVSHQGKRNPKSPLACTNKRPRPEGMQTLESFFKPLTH
# Assay: qHTS for Inhibitors of Polymerase Eta
# Settings: recombinant Pol eta, fluorescent DNA replication assay; series mostly up to 114 µM
# Summary of the method: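 Pol eta at 10 nM preincubated with compounds 15 min at room temperature; reaction started with fluorescent substrate (50 nM final) and read kinetically at 0 and 10 min.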
# Potency means the concentration at half of the fitted maximal effect; tags describe the fitted curve by direction and shape.
row,SMILES,Potency
1,Cc1cccc(C(=O)OCC(=O)NCc2ccco2)c1,active: 15.8 µM
2,O=C(O)COc1ccccc1C(Nc1cccnc1)c1cc(Cl)c2cccnc2c1O (stereo unspecified),active: 79.4 µM
3,C=CCOC(=O)C1=C(C)NC(SC)=C(C#N)C1c1ccc(OCC)cc1 (stereo unspecified),"inactive and inconclusive: 89.1 µM [inhibitor, partial curve, poor fit]"
4,CN1CCN(C(c2ccc(Cl)cc2)c2cc(Cl)c3cccnc3c2O)CC1 (stereo unspecified),"inconclusive: 39.8 µM [inhibitor, partial curve, poor fit]"
5,FC(F)(F)c1cccc(Nc2nc(N3CCCC3)nc(N3CCCC3)n2)c1,"inconclusive: 89.1 µM [inhibitor, partial curve, poor fit]"
6,CC(C)CNC(=O)c1c(N)n(/N=C/c2ccccn2)c2nc3ccccc3nc12,"inconclusive: 5.62 µM [inhibitor, partial curve, poor fit]"
7,O=c1c2ccccc2nc(SCc2ccccc2)n1CC1CCCO1 (stereo unspecified),"inconclusive: 79.4 µM [inhibitor, partial curve]"
8,CCOC(=O)c1c(-c2ccc(C)o2)csc1NC(=O)CN(C)CC(=O)Nc1ccc(C)cc1,"inconclusive: 17.8 µM [inhibitor, partial curve, poor fit]"
9,O=C(Nc1ccccc1)c1ccccc1NC(=O)c1ccccc1C(=O)O,"inconclusive: 89.1 µM [inhibitor, single point]"
10,COc1ccc(/C=C2\CCc3c2nc2ccccc2c3C(=O)O)cc1OC,active: 20 µM
11,Cc1cc2occ(CC(=O)O)c2cc1C,"inconclusive: 89.1 µM [inhibitor, partial curve, poor fit]"
12,CC(=O)Nc1cccc(OCC(=O)Nc2sccc2C(N)=O)c1,"inconclusive: 35.5 µM [inhibitor, partial curve, poor fit]"
13,C=CCn1cnc2c(c1=O)c1nc3ccccc3nc1n2/N=C/c1cc(OC)c(OC)c(OC)c1,"inconclusive: 3.55 µM [inhibitor, full curve, poor fit]"
14,COc1ccc(-c2cc(C(F)(F)F)nc(S(=O)(=O)CCCC(=O)Nc3cc(C)on3)n2)cc1OC,"inconclusive: 39.8 µM [inhibitor, partial curve, poor fit]"
15,COc1ccc2nc(NC(=O)Cc3cccs3)sc2c1,"inconclusive: 22.4 µM [inhibitor, single point]"
16,COc1ccc(NC(=O)CN(c2ccc(C)cc2)S(=O)(=O)c2c(C)nn(C)c2C)cc1OC,"inconclusive: 17.8 µM [inhibitor, partial curve, poor fit]"
17,S=c1[nH]nc(-c2ccc3ccccc3n2)n1-c1cc(Cl)cc(Cl)c1,"inconclusive: 12.6 µM [inhibitor, partial curve, poor fit]"
18,O=C(O)c1cc(NS(=O)(=O)c2ccc(NC3CCCCC3)c([N+](=O)[O-])c2)cc(C(=O)O)c1,active: 44.7 µM
19,COCCCn1c(=O)c2sccc2n(Cc2cc(C(=O)OC)ccc2OC)c1=O,inactive
20,N#Cc1c(Nc2cccc(F)c2)sc2c(O)cc(=O)[nH]c12,inactive
21,Cc1cnc(C=NNC(N)=S)c2cccc(N)c12,active: 5.01 µM
22,Cc1cc(C(=O)OCC(=O)NCc2ccco2)c(C)o1,"inconclusive: 22.4 µM [inhibitor, full curve]"

row,SMILES,Potency
1,COc1cccc(NC(=O)COC(=O)c2ccc(S(=O)(=O)NCc3ccco3)cc2)c1,active: 8.91 µM
2,Cc1ccc(CCNC(=O)CCCn2c(=O)c3cccn3c3ccc(F)cc32)cc1,inactive
3,O=C(N/N=C/C(Br)=C/c1ccccc1)c1cnccn1,inactive
4,COc1ccc(CNC(=O)CCc2c(C)nc3c4cccnc4nn3c2C)cc1,inactive
5,NC(=O)CSCc1nc2ccccc2s1,"inconclusive: 25.1 µM [inhibitor, partial curve]"
6,Cc1ccc(N/C=C(\C2OC(=O)c3ccccc32)[N+](=O)[O-])c(C)c1 (stereo unspecified),"inconclusive: 39.8 µM [inhibitor, partial curve, poor fit]"
7,CCCCS/C(=C(/C#N)C(N)=O)c1cc2c([nH]1)CCCC2,"inconclusive: 31.6 µM [inhibitor, partial curve, poor fit]"
8,COC(=O)COc1c(/C=C\c2nc(O)c([N+](=O)[O-])c(=O)[nH]2)cccc1OC,inactive
9,CN(C)S(=O)(=O)c1cccc(C(=O)OCC(=O)Nc2sccc2C(N)=O)c1,active: 20 µM
10,COc1ccc(CN(CCC(c2ccccc2)c2ccco2)C(=O)c2ccco2)cc1 (stereo unspecified),active: 79.4 µM
11,Cc1ccc(C(=O)NCC(=O)OCc2nnc(-c3ccc([N+](=O)[O-])cc3)o2)s1,"inconclusive: 20 µM [inhibitor, partial curve, poor fit]"
12,CCCc1cc(=O)[nH]c(SCC(=O)Nc2cc(S(=O)(=O)N(CC)c3ccccc3)ccc2Cl)n1,"inconclusive: 25.1 µM [inhibitor, single point]"
13,Cc1ccc2oc(=O)cc(CN3CC(C)OC(C)C3)c2c1 (stereo unspecified),"inconclusive: 79.4 µM [inhibitor, partial curve, poor fit]"
14,CCN1CCN(C(=O)c2cc(-c3ccco3)nc3ccccc23)CC1,active: 35.5 µM
15,O=C(Cn1ncc(Cl)c(Cl)c1=O)N1CCN(Cc2ccccc2)CC1,"inconclusive: 20 µM [inhibitor, partial curve, poor fit]"
16,COc1cccc(-c2cc(C(=O)Nc3cccnc3)no2)c1,inactive
17,O=C(c1ccc(N2CCCCC2)c([N+](=O)[O-])c1)N1CCN(c2ccccn2)CC1,"inconclusive: 89.1 µM [inhibitor, partial curve, poor fit]"
18,CC(=O)N1CCN(c2ccc(NC(=O)c3cccc(C)c3)cc2)CC1,"inconclusive: 100 µM [inhibitor, single point]"
19,Cc1ccc(-c2nnc(Oc3ccc(NC(=O)c4ccccc4)cc3)c3ccccc23)cc1,"inconclusive: 8.91 µM [inhibitor, partial curve, poor fit]"
20,Cc1c(Cc2ccccc2)c(=O)oc2c(O)c(O)ccc12,"inconclusive: 35.5 µM [inhibitor, single point]"
21,CCOC(=O)C1CCN(CC(=O)c2c(C)n(C)c3ccc(OC)cc23)CC1,inactive
22,CCC(C(=O)NCc1ccccc1Cl)n1c(=O)c2cccn2c2ccccc21 (stereo unspecified),inactive

row,SMILES,Potency
1,N#CC1C=Cc2ccccc2N1C(=O)c1ccccc1 (stereo unspecified),"inconclusive: 79.4 µM [inhibitor, partial curve, poor fit]"
2,Cc1c(N=Cc2cc(Br)cc(Br)c2O)cccc1C(=O)O,"inconclusive: 22.4 µM [inhibitor, partial curve, poor fit]"
3,COCCCn1c(SCC(=O)NC2CCCCC2)nc2ccccc2c1=O,"inconclusive: 89.1 µM [inhibitor, partial curve, poor fit]"
4,Cc1cc2c(=Cc3ccc(N(C)C)cc3)c3ccccc3n2[n+]1C,"inconclusive: 10 µM [inhibitor, partial curve, poor fit]"
5,CN(C)CCCNc1c2ccccc2nc2ccccc12,active: 22.4 µM
6,COc1ccc2oc(C(=O)OCC(=O)N(C)CC(=O)Nc3ccc(F)cc3)c(C)c2c1,"inconclusive: 44.7 µM [inhibitor, partial curve]"
7,Cc1ccc(NC(=O)Cn2cc(S(=O)(=O)Cc3ccccc3)c3ccccc32)cc1C,"inconclusive: 79.4 µM [inhibitor, partial curve]"
8,O=C(CCCn1c(=O)c2ccccc2n(CC(=O)NCc2ccco2)c1=O)NCc1ccco1,"inconclusive: 31.6 µM [inhibitor, partial curve, poor fit]"
9,COc1ccc2[nH]c(=O)cc(C(=O)O)c2c1,active: 14.1 µM
10,Cc1cc(C(=O)Nc2cccc(C(=O)O)c2)oc1C,"inconclusive: 20 µM [inhibitor, partial curve]"
11,COCCCNC(=O)C1CC(=O)N(CCc2ccc(OC)c(OC)c2)C1 (stereo unspecified),active: 31.6 µM
12,CC(=O)N1CCc2cc(Br)cc(S(=O)(=O)N3CCC(C(=O)O)CC3)c21,"inconclusive: 50.1 µM [inhibitor, partial curve]"
13,COc1cccc(-n2cc(C(=O)NCCc3cccc(C)c3)c3ccccc3c2=O)c1,"inconclusive: 79.4 µM [inhibitor, partial curve, poor fit]"
14,CCOc1ccccc1NS(=O)(=O)c1cn(C)nc1C,inactive
15,COc1cc(CCC(=O)OCC(=O)Nc2ncc(Cl)cc2Cl)cc(OC)c1OC,active: 11.2 µM
16,Cc1ccc(NS(=O)(=O)c2cccc(C(=O)O)c2)cc1S(=O)(=O)N1CCCCC1,"inconclusive: 35.5 µM [inhibitor, single point]"
17,N#Cc1ccsc1NC(=O)COC(=O)c1ccc2ccccc2c1,"inconclusive: 28.2 µM [inhibitor, single point]"
18,CCOc1ccc(C(=O)Nc2cccc(-c3cc4ccccc4oc3=O)c2)cc1[N+](=O)[O-],"inconclusive: 3.16 µM [inhibitor, full curve, poor fit]"
19,O=S(=O)(CS(=O)(=O)c1ccc(Cl)cc1)c1ccc(Cl)cc1,"inconclusive: 100 µM [inhibitor, partial curve, poor fit]"
20,CC(C)CC(NC(=O)/C(=C/c1ccco1)NC(=O)c1ccc(Br)o1)C(=O)O (stereo unspecified),active: 22.4 µM
21,CCSc1ccc([C@@H]2[C@@H]3C(=O)N(CC)C(=O)[C@@H]3[C@]3(C(=O)OC)CCCCN23)cc1,"inconclusive: 89.1 µM [inhibitor, partial curve, poor fit]"
22,CCc1nnc(NC(=O)CCC(=O)NCC2CCCO2)s1 (stereo unspecified),"inconclusive: 89.1 µM [inhibitor, partial curve, poor fit]"
